Assay results from patent US20090136523A1.

Columns and labels:
Assay in all cases: peptide microarray
[1] = biological target: peptide 1 (human)
[2] = biological target: peptide 10 (human)
[3] = biological target: peptide 100 (human)
[4] = biological target: peptide 101 (human)
[5] = biological target: peptide 102 (human)
[6] = biological target: peptide 104 (human)
[7] = biological target: peptide 110 (human)
[8] = biological target: peptide 112 (human)
[9] = biological target: peptide 114 (human)
[10] = biological target: peptide 115 (human)
[11] = biological target: peptide 118 (human)
[12] = biological target: peptide 120 (human)
[13] = biological target: peptide 127 (human)
[14] = biological target: peptide 128 (human)
[15] = biological target: peptide 129 (human)
[16] = biological target: peptide 132 (human)
[17] = biological target: peptide 133 (human)
[18] = biological target: peptide 15 (human)
[19] = biological target: peptide 17 (human)
[20] = biological target: peptide 19 (human)
[21] = biological target: peptide 21 (human)
[22] = biological target: peptide 22 (human)
[23] = biological target: peptide 27 (human)
[24] = biological target: peptide 28 (human)
[25] = biological target: peptide 3 (human)
[26] = biological target: peptide 30 (human)
[27] = biological target: peptide 33 (human)
[28] = biological target: peptide 35 (human)
[29] = biological target: peptide 36 (human)
[30] = biological target: peptide 38 (human)
[31] = biological target: peptide 39 (human)
[32] = biological target: peptide 4 (human)
[33] = biological target: peptide 43 (human)
[34] = biological target: peptide 44 (human)
[35] = biological target: peptide 45 (human)
[36] = biological target: peptide 50 (human)
[37] = biological target: peptide 52 (human)
[38] = biological target: peptide 53 (human)
[39] = biological target: peptide 57 (human)
[40] = biological target: peptide 60 (human)
[41] = biological target: peptide 62 (human)
[42] = biological target: peptide 63 (human)
[43] = biological target: peptide 64 (human)
[44] = biological target: peptide 66 (human)
[45] = biological target: peptide 67 (human)
[46] = biological target: peptide 68 (human)
[47] = biological target: peptide 71 (human)
[48] = biological target: peptide 73 (human)
[49] = biological target: peptide 74 (human)
[50] = biological target: peptide 76 (human)
[51] = biological target: peptide 82 (human)
[52] = biological target: peptide 84 (human)
[53] = biological target: peptide 85 (human)
[54] = biological target: peptide 86 (human)
[55] = biological target: peptide 89 (human)
[56] = biological target: peptide 91 (human)
[57] = biological target: peptide 92 (human)
[58] = biological target: peptide 93 (human)
[59] = biological target: peptide 95 (human)
[60] = biological target: peptide 97 (human)
[61] = biological target: peptide 98 (human)
[62] = biological target: peptide 99 (human)

B1: rhuMAb 411 (antibody, human IgG1, kappa)
heavy: EVQLVESGAGVKQPGGTLRLTCTASGFSLTTYGVHWVRQAPGKGLEWVGVIWGDGRTDYDAAFMSRVTISKDTSKSTVYLQMNSLRAEDTAVYYCMRNRHDWFDYWGQGTTVTVSS[letters of human IgG1 constant region left out]
light: DILLTQSPSSLSATPGERATITCRASQGIRNNLNWYQQKPGQAPRLLIYYSSNLQSGVPSRFSGSGSGTDFTLTISRLQPEDVAAYYCQQSIKLPFTFGSGTKVEIKRTVAAPSVFIFPPSDEQLKSGTASVVCLLNNFYPREAKVQWKVDNALQSGNSQESVTEQDSKDSTYSLSSTLTLSKADYEKHKVYACEVTHQGLSSPVTKSFNRGEC
Mean Signal Value [1]: 3.5
Mean Signal Value [2]: 0.0192
Mean Signal Value [3]: 0.00962
Mean Signal Value [4]: 0.00481
Mean Signal Value [5]: 0.0192
Mean Signal Value [6]: 0.00481
Mean Signal Value [7]: 0.024
Mean Signal Value [8]: 0
Mean Signal Value [9]: 0.00481
Mean Signal Value [10]: 0.0673
Mean Signal Value [11]: 0
Mean Signal Value [12]: 0.0337
Mean Signal Value [13]: 0.00962
Mean Signal Value [14]: 0.106
Mean Signal Value [15]: 23.3
Mean Signal Value [16]: 113
Mean Signal Value [17]: 6.51
Mean Signal Value [18]: 0
Mean Signal Value [19]: 0.0625
Mean Signal Value [20]: 0
Mean Signal Value [21]: 0.197
Mean Signal Value [22]: 0.0192
Mean Signal Value [23]: 0.00481
Mean Signal Value [24]: 0.221
Mean Signal Value [25]: 0.726
Mean Signal Value [26]: 6.26
Mean Signal Value [27]: 21.8
Mean Signal Value [28]: 84.7
Mean Signal Value [29]: 28.2
Mean Signal Value [30]: 4.77
Mean Signal Value [31]: 55.7
Mean Signal Value [32]: 51.3
Mean Signal Value [33]: 0
Mean Signal Value [34]: 0
Mean Signal Value [35]: 0
Mean Signal Value [36]: 34.6
Mean Signal Value [37]: 0.12
Mean Signal Value [38]: 0.00481
Mean Signal Value [39]: 9.67
Mean Signal Value [40]: 0.0769
Mean Signal Value [41]: 0.00481
Mean Signal Value [42]: 8.12
Mean Signal Value [43]: 0.438
Mean Signal Value [44]: 0.111
Mean Signal Value [45]: 0.00962
Mean Signal Value [46]: 0
Mean Signal Value [47]: 0
Mean Signal Value [48]: 33.6
Mean Signal Value [49]: 0
Mean Signal Value [50]: 0.0337
Mean Signal Value [51]: 67.8
Mean Signal Value [52]: 17.2
Mean Signal Value [53]: 1.02
Mean Signal Value [54]: 0.524
Mean Signal Value [55]: 0
Mean Signal Value [56]: 2.3
Mean Signal Value [57]: 11.9
Mean Signal Value [58]: 0.269
Mean Signal Value [59]: 6.14
Mean Signal Value [60]: 0.0144
Mean Signal Value [61]: 0.00481
Mean Signal Value [62]: 0.0865
